# Some of the results follow. Most values come without repeats; read them as rough.
# What was measured:
# Test in all cases: cell count relative to DMSO control; melanoma cells; higher = more viable cells
# Conditions in all cases: library dose: standard library concentration; 72 h
# SkMel28 = system: SkMel28
# SkMel2 = system: SkMel2
# SkMel30 = system: SkMel30
# SkMel5 = system: SkMel5
# UACC257 = system: UACC257
# UACC62 = system: UACC62
# WM115 = system: WM115
# WM1716 = system: WM1716
# WM1745 = system: WM1745
# WM3526 = system: WM3526
# 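Note: cells treated in 1,536-well plates, then fixed and DAPI-stained, with nuclei counted from automated high-throughput microscope images.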
Compound,cell count (SkMel28),cell count (SkMel2),cell count (SkMel30),cell count (SkMel5),cell count (UACC257),cell count (UACC62),cell count (WM115),cell count (WM1716),cell count (WM1745),cell count (WM3526)
"Nc1cccc2c1CN(C1CCC(=O)NC1=O)C2=O (stereo not drawn) [lenalidomide] + CC(C)CCN1c2nc(Nc3cc(F)c(O)c(F)c3)ncc2N(C)C(=O)C1C [BID1870] (first compound 5 µM, partner dose 1 µM)",54%,80.7%,75.3%,66.8%,97%,90.6%,84.7%,94.6%,89.7%,65.2%
"Clc1ccc(Nc2nnc(Cc3ccncc3)c3ccccc23)cc1 [vatalanib] + COc1ccc2c(c1)CCC1C2CCC2(C)C(NCCCCCCN3C(=O)C=CC3=O)CCC12 [U73122] (first compound 10 µM, partner dose 2 µM)",64.8%,59.1%,89.7%,45.8%,75.4%,61.7%,53.8%,73.7%,–,54%
"Cn1c(Nc2ccc(C(F)(F)F)cc2)nc2cc(Oc3ccnc(-c4ncc(C(F)(F)F)[nH]4)c3)ccc21 + CC(C)(C)c1cnc(CSc2cnc(NC(=O)C3CCNCC3)s2)o1 [SNS-032] (first compound 0.4 µM, partner dose 0.05 µM)",26.7%,33.4%,69.3%,23.5%,69.5%,52.9%,25.6%,58.1%,49.1%,33.4%
"Cn1c(Nc2ccc(C(F)(F)F)cc2)nc2cc(Oc3ccnc(-c4ncc(C(F)(F)F)[nH]4)c3)ccc21 + N#Cc1c(O)c2c(-c3ccc(-c4ccccc4O)cc3)csc2[nH]c1=O [A769662] (first compound 0.4 µM, partner dose 10 µM)",47.7%,66.7%,74.2%,45.1%,83.1%,53.6%,49.9%,69.1%,59.2%,45%
"OCc1c[nH]c2ccccc12 [Indole-3-carbinol] + C[C@]1(c2nc3c(C(N)=O)cccc3[nH]2)CCCN1 [Veliparib] (first compound 4 µM, partner dose 7 µM)",81.1%,102%,103%,100%,122%,73.3%,99.3%,89.5%,85%,108%
"Nc1cccc2c1CN(C1CCC(=O)NC1=O)C2=O (stereo not drawn) [lenalidomide] + COc1cc(Nc2ncc(F)c(Nc3ccc4c(n3)NC(=O)C(C)(C)O4)n2)cc(OC)c1OC [Tamatinib] (first compound 5 µM, partner dose 2 µM)",65.4%,77%,91.9%,50.5%,67.9%,70.7%,59.3%,62.1%,27.7%,74.6%
"C#Cc1cccc(Nc2ncnc3cc(OCCOC)c(OCCOC)cc23)c1 [erlotinib] + Oc1cc(-c2nc(-c3ccccc3)[nH]c2-c2ccncc2)ccc1Cl [L779450] (first compound 4 µM, partner dose 1 µM)",54.9%,15%,70.2%,39.6%,92.5%,51.4%,49.1%,70.7%,34.1%,46.9%
"OCc1c[nH]c2ccccc12 [Indole-3-carbinol] + COc1cc(N2CCC(N3CCN(C)CC3)CC2)ccc1Nc1ncc(Cl)c(Nc2ccccc2S(=O)(=O)C(C)C)n1 [NVP-TAE684] (first compound 4 µM, partner dose 0.4 µM)",98.8%,63%,101%,74.2%,78.6%,77.5%,82.8%,88.8%,–,79.6%
"Cn1c(Nc2ccc(C(F)(F)F)cc2)nc2cc(Oc3ccnc(-c4ncc(C(F)(F)F)[nH]4)c3)ccc21 + O=S(=O)(c1ccccc1)N(CC(F)(F)F)c1ccc(C(O)(C(F)(F)F)C(F)(F)F)cc1 [T0901317] (first compound 0.4 µM, partner dose 7 µM)",29.7%,38.1%,66.9%,38%,63.8%,32.1%,37.9%,59.7%,49.3%,35.5%
"Nc1cccc2c1CN(C1CCC(=O)NC1=O)C2=O (stereo not drawn) [lenalidomide] + CC(C)(C)c1cnc(CSc2cnc(NC(=O)C3CCNCC3)s2)o1 [SNS-032] (first compound 5 µM, partner dose 0.05 µM)",64.4%,67%,103%,72.5%,100%,80.8%,78%,80.9%,81.3%,103%
"Cn1c(Nc2ccc(C(F)(F)F)cc2)nc2cc(Oc3ccnc(-c4ncc(C(F)(F)F)[nH]4)c3)ccc21 + CCCCCCCCCCCC1=C(O)C(=O)C=C(O)C1=O [Embelin] (first compound 0.4 µM, partner dose 6 µM)",30.5%,53.5%,67.3%,33.8%,74.5%,49.5%,39.8%,60.4%,53.7%,43%
"COCC[n+]1c2c(n(Cc3cnccn3)c1C)C(=O)c1ccccc1C2=O + C[C@@H]1CCN(C(=O)CC#N)C[C@@H]1N(C)c1ncnc2[nH]ccc12 [CP690550] (first compound 0.002 µM, partner dose 5 µM)",68.9%,38.1%,98%,47.8%,26.2%,81.1%,121%,75.4%,99.7%,59.3%
"O=C(CCCCCCC(=O)Nc1ccccc1)NO [vorinostat] + Cc1cc(N2CCOCC2)cc2[nH]c(-c3c(NC[C@@H](O)c4cccc(Cl)c4)cc[nH]c3=O)nc12 [BMS536924] (first compound 0.4 µM, partner dose 1 µM)",55%,77.9%,71.9%,43.7%,66.6%,69.6%,80.1%,96%,50.8%,65.8%
